# Source: PubChem BioAssay AID1240 (Sanford-Burnham Center for Chemical Genomics, 2008)
# Screen size: about 50,000 compounds; about 800 (1.6%) showed an effect of 50% or more. This is one part of the list.
# Molecular target: Bcl-2-like protein 10 (Homo sapiens) (UniProt Q9HD36)
# Assay: Phenotype converters, Bcl-B/TR3 peptide binding displacement, primary biochemical FP (AID 1240);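 also: 0% = Bcl-B with tracer peptide and DMSO and 100% = tracer peptide lacking Bcl-B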
# Details: GST-Bcl-B / FITC-TR3 peptide fluorescence polarization; stronger effect = higher value; compound at 3.75 mg/L
# UniProt Q9HD36, sequence (Q9HD36 whole entry, looked up): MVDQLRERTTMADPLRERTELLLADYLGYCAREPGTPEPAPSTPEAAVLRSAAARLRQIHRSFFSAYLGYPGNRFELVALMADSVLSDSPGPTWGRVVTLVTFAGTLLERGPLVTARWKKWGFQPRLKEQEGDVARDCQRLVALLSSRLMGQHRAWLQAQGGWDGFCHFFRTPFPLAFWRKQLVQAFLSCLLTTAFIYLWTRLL
row,Structure (SMILES),displacement [%]
1,NS(=O)(=O)c1cccc(NC(=O)COc2ccccc2[N+](=O)[O-])c1,6.5
2,Cc1[nH]c2ccccc2c1/C=N/NC(=O)c1ccc(O)cc1O,-1.7
3,Cc1cc(NC(=O)c2ccc(Oc3ccc([N+](=O)[O-])cc3)cc2)no1,6
4,Cc1ccc(C2CC(C(F)(F)F)n3nc(C(=O)Nc4ccc(F)cc4F)cc3N2)cc1 (configuration not stated),0.7
5,COC(=O)c1ccccc1NC(=O)CSC(N)=O,3.5
6,O=C(N/N=C/c1ccc(Br)s1)Nc1ccccc1,2.2
7,Cc1cc(OCC(=O)Nc2cccc(I)c2)cc(C)c1Cl,-0.6
8,COc1ccc(N2C(=O)c3ccc(C(=O)Nc4cccc(O)c4)cc3C2=O)cc1,-2
9,COc1cc(NC(=O)c2cnn3c2NC(c2ccco2)CC3C(F)(F)F)c(OC)cc1Cl (configuration not stated),7.7
10,Cc1cccc(N2C(=O)CC(n3c(C)nc4ccccc43)C2=O)c1 (configuration not stated),11.7
11,Cc1ccc(CCC(=O)Nc2ncc(Cc3ccc(Cl)cc3Cl)s2)o1,13.8
12,CCOC(=O)C(CCCCOc1ccccc1F)C(=O)OCC,-4
13,O=C(CCc1ccccc1)Oc1ccc(Cl)cc1,-7.7
14,COc1cc(C(=O)n2nc(C)c(Sc3ccccc3[N+](=O)[O-])c2C)cc(OC)c1OC,-13.2
15,COc1ccc(C2=C/C(=C/c3ccc(Cl)cc3)C(=O)O2)cc1OC,105
16,Cc1cccc(NC(=O)COc2ccc3ccccc3c2)c1C,6.1
17,CC(C)c1cccc(C(C)C)c1NC(=O)COc1cccc(Br)c1,12.8
18,COC(=O)c1cc(NC(=O)CCCOc2ccc(Cl)cc2C)cc(C(=O)OC)c1,-4.8
19,Cc1ccc([N+](=O)[O-])cc1NC(=O)C1C2C3CCC(C3)C12 (configuration not stated),11.6
20,CCOC(=O)C(CCOCCOc1c(C)cc(C)cc1C)C(=O)OCC,-7.7
21,CS(=O)(=O)N(Cc1ccccc1)c1ccccc1C(=O)N[C@H]1C[C@@H]2CC[C@H]1C2,15
22,COc1cc(C2/C(=C(\O)c3ccccc3)C(=O)C(=O)N2CCN(C)C)ccc1O (configuration not stated),-2.5

row,Structure (SMILES),displacement [%]
1,COc1ccc(C2/C(=C(/O)c3ccccc3)C(=O)C(=O)N2c2cccc(Br)c2)cc1OC (configuration not stated),-8.8
2,O=C(CCNc1ccc(F)cc1)c1cccc([N+](=O)[O-])c1,11.2
3,O=C(COc1ccc(Cl)cc1Cl)NCCCOCC(=O)Oc1ccc(Cl)cc1Cl,-6.7
4,Cc1cc(Br)ccc1OCC(=O)O/N=C(\N)c1ccccn1,11.1
5,COc1cc(/C=N/Nc2nc(N3CCOCC3)nc(N3CCOCC3)n2)ccc1OC(=O)c1ccco1,8.3
6,COc1ccc(S(=O)(=O)CCc2nc3ccccc3o2)cc1,-1.6
7,CN(C)CCCNCCCc1ccc(C(C)(C)C)cc1,-2.2
8,COc1ccc(N(CC(=O)NC(C)c2ccccc2)S(C)(=O)=O)c(OC)c1 (configuration not stated),6.6
9,O=C1C=C/C(=N\S(=O)(=O)c2cc(Cl)ccc2Cl)C=C1Cl,21.8
10,COc1cc(/C=N\NC(=O)c2cccc3ccccc23)ccc1O,8.8
11,O=C1c2ccccc2C(=O)N1CC(O)Cn1c2ccc(Cl)cc2c2cc(Cl)ccc21 (configuration not stated),5.3
12,CCOC(=O)C1=C(C)NC2=C(C(=O)CCC2)C1c1ccccc1[N+](=O)[O-] (configuration not stated),19.4
13,CC(/C=C/c1ccccc1)=N\N=C1\NC(=O)C(Cc2ccccc2)S1 (configuration not stated),-23.5
14,O=C(COc1ccc2ccccc2c1)N1CCN(c2ccc([N+](=O)[O-])cc2)CC1,-5.3
15,CC(Oc1ccccc1)C(=O)Nc1ccc(Cl)c([N+](=O)[O-])c1 (configuration not stated),5.6
16,COc1ccc(-n2nc3cc(C)c(NC(=O)COc4ccccc4C)cc3n2)cc1,0.2
17,O=C(O)c1ccccc1-c1ccccc1C(=O)Nc1ccccc1-c1ccccc1,-9.6
18,CCC1(C(=O)OCC(=O)c2ccc(Br)cc2)CCCCC1,6.6
19,Cc1ccc2c(c1)-c1c(ssc1=S)C(C)(C)N2C(=O)C(C)N1C(=O)c2ccccc2C1=O (configuration not stated),0.1
20,CC1S/C(=N/N=C/c2ccc(Cl)cc2)NC1=O (configuration not stated),2.7
21,O=C(O)c1ccccc1-c1ccccc1C(=O)N1CCCCC1,-13.7
22,Cn1c(=O)c2c(ncn2CC(=O)Nc2ccc(OCc3ccccc3)cc2)n(C)c1=O,-6.6

row,Structure (SMILES),displacement [%]
1,COc1ccc(OC)c(C2C(C(C)=O)=C(O)C(=O)N2c2nc3ccccc3s2)c1 (configuration not stated),-8.3
2,CC(=O)Oc1ccc(-c2cccc(NC(=O)c3ccc4c(c3)Cc3ccccc3-4)c2)cc1,11.7
3,C=CCn1c(-c2ccc(C(C)(C)C)cc2)n[nH]c1=S,-1.8
4,O=c1c(/C=N/Nc2nc3ccccc3s2)c(C(F)(F)F)[nH]n1-c1nc2ccccc2s1,-25.1
5,CCOc1cccc(C(=O)Nc2nc3ccc(C)cc3s2)c1,10
6,S=C(Nc1cccc(Cl)c1)N1CCOCC1,-3.9
7,COc1ccc(-n2nc3cc(C)c(NC(=O)c4cccnc4)cc3n2)cc1,5.1
8,COc1cc(OC)cc(C(=O)Nc2cccc(-c3nc4ccccc4[nH]3)c2)c1,-7.2
9,COc1ccc(CCNC2CC(=O)N(c3ccc(Br)cc3)C2=O)cc1 (configuration not stated),-8
10,Cc1ccc(S(=O)(=O)N2CCCC2C(=O)Nc2ccc([N+](=O)[O-])cc2)cc1 (configuration not stated),-6.6
11,O=C1C2C(C(=O)N1c1ccc(Cl)cc1)C2(c1ccccc1)c1ccccc1 (configuration not stated),-10.2
12,C(#Cc1ccccc1)CN1CCOCC1,2.4
13,CCc1nccn1S(=O)(=O)c1ccc2ccccc2c1,-3.4
14,CCOC(=O)c1conc1-c1ccc(SC)cc1,6.5
15,COc1ccc(CN2CCN(Cc3cc(OC)c(OC)c(OC)c3)CC2)cc1,2.4
16,O=C(/C=C/c1ccccc1)NC(=S)Nc1ccc2oc(-c3cccnc3)nc2c1,2.7
17,COc1ccc(C2NC(=O)NC(C)=C2C(=O)Nc2ccc(Cl)cc2)cc1 (configuration not stated),-5.4
18,COc1ccccc1/C=C1\SC(=S)N(c2cccc(C(=O)O)c2)C1=O,-3.2
19,O=C(Nc1ccc(Cl)cc1)Nc1nnc(C(c2ccccc2)c2ccccc2)s1,-1.5
20,CC1(C)CC(=O)C=C(Nc2ccc(NC3=CC(=O)CC(C)(C)C3)cc2)C1,5.5
21,C#CCSc1nc2ccccc2c(=O)[nH]1,-3.5
22,CCC1=NN(C(=O)c2ccccc2)C(O)(c2ccc(Br)cc2)C1 (configuration not stated),7.6

row,Structure (SMILES),displacement [%]
1,CC(C)(C)c1cnnn1-c1ccc(N)cc1,2.9
2,O=S1(=O)CCC(Oc2ccc(Br)cc2)C1 (configuration not stated),-2.2
3,CCCOc1ccccc1/C=C1/C(=O)NN(c2ccccc2)C1=O,10.6
4,O=S(=O)(c1ccc(NC(=S)Nc2ccccc2)cc1)N1CCCCC1,5.3
5,COC(C(=O)N/N=C/c1cc([N+](=O)[O-])ccc1Cl)c1ccccc1 (configuration not stated),7.1
6,O=C1c2ccc([N+](=O)[O-])cc2C(=O)N1c1cccnc1,5.9
7,Cc1ccc(C23CC4CC(CC(C(=O)O)(C4)C2)C3)cc1,12.4
8,O=C(/C=C/c1ccc2c(c1)OCO2)NCc1ccc(Cl)cc1Cl,-6.5
9,CN1C(=O)CC(N2CCN(C/C=C/c3ccccc3)CC2)C1=O (configuration not stated),-11.7
10,FC(F)(F)c1ccc2nnc(-c3c(Cl)cccc3Cl)n2c1,6.6
11,O=C(Nc1nc(-c2ccc(F)cc2)cs1)c1ccccc1[N+](=O)[O-],8.9
12,O=C1c2cccc3c([N+](=O)[O-])ccc(c23)C(=O)N1Cc1cccnc1,37.7
13,Cc1ccc(-c2cc(OC(=O)c3ccccc3)cc3sc(=O)oc23)cc1,1
14,COC(=O)C1=NNC2C(=O)N(c3cccc(C)c3)C(=O)C12 (configuration not stated),-4.8
15,Cc1cc(=O)oc2cc(OCc3ccc(Cl)c(Cl)c3)ccc12,8.6
16,O=C(Nc1nccs1)c1cccc(N2C(=O)c3ccc([N+](=O)[O-])cc3C2=O)c1,11.2
17,CC(/C=C/c1ccc(I)cc1)=C\C(=O)O,1.5
18,COc1ccc(N2C(=O)C3C(C2=O)C2C=CC3C23CC3)c([N+](=O)[O-])c1 (configuration not stated),14.6
19,O=C(NOC(=O)c1ccc(Cl)cc1Cl)c1ccc(Cl)cc1,4.5
20,C#CCOC(=O)C(C=C=C)(C(=O)OCC)C(F)(F)F (configuration not stated),0.2
21,CCCOC(=O)/C(C(N)=NCCO)=C(/O)OCCC,-10.3
22,C/C(=N\NC(=O)c1ccc(C(C)(C)C)cc1)c1ccc(C)o1,8.1

row,Structure (SMILES),displacement [%]
1,CC(=O)NC1=NC(=O)/C(=C\c2ccc(Br)o2)S1,1.4
2,O=C(c1cccc(F)c1F)N1CCN(c2cc(N3CCOCC3)c(F)cc2[N+](=O)[O-])CC1,-12.7
3,CCCn1c(C(O)c2ccc(OCc3ccccc3)c(OC)c2)nc2ccccc21 (configuration not stated),-4.1
4,CCOC(=O)C1=C(C)N=c2s/c(=C\c3ccc4c(c3)OCO4)c(=O)n2C1c1ccc2c(c1)OCO2 (configuration not stated),3.5
5,CC(C)CCOC(=O)c1ccc2c3c(onc13)-c1ccccc1C2=O,21
6,O=C1c2ccccc2NC(c2ccc(Cl)cc2Cl)N1Cc1ccco1 (configuration not stated),12.4
7,COc1ccc(/C(O)=C2/C(=O)C(=O)N(CCCCCC(=O)O)C2c2ccc(C)cc2)cc1 (configuration not stated),-6.5
8,C#CCOC(=O)CN1C(=O)c2cccc3cccc(c23)C1=O,7.9
9,Cc1oc2ccc(OC(C)C(=O)O)cc2c1C(=O)OC(C)C (configuration not stated),8.1
10,O=C1C(=O)N(CCCn2ccnc2)C(c2ccc([N+](=O)[O-])cc2)/C1=C(\O)c1ccc(Cl)cc1 (configuration not stated),3.9
11,O=C(Nc1ccc(OC(F)(F)F)cc1)c1ccc([N+](=O)[O-])cc1Cl,-0.6
12,O=C1CC(N2CCN(C(c3ccccc3)c3ccccc3)CC2)C(=O)N1c1ccc(Cl)cc1 (configuration not stated),11.8
13,CC(NC(=O)Cc1ccccc1)c1ccc(Cl)c(Cl)c1 (configuration not stated),11.1
14,CCOc1ccccc1NC(=O)C(=O)NCCCN1CCOCC1,9
15,CCOc1ccc(N2C(=O)NC(=O)/C(=C\c3ccc([N+](=O)[O-])cc3)C2=O)cc1,-2.1
16,COC(=O)c1cc(C(=O)N2CCOCC2)cc([N+](=O)[O-])c1,10.5
17,COC(=O)c1cccc(OC)c1[N+](=O)[O-],10.6
18,COc1ccc2nc(-c3ccccc3)cc(C(=O)Nc3ccccc3C)c2c1,13.5
19,O=C(CN(Cc1ccccc1)S(=O)(=O)c1ccc(Br)cc1)N1CCOCC1,-8
